This is one part of the list.
Columns and labels:
Assay in all cases: glycan array binding signal (z-score within array); higher = stronger binding
Conditions in all cases: glycan notation: IUPAC condensed, linker removed; mutation: H84T
Fuc(a1-2)Gal = molecular target: Fuc(a1-2)Gal
Outline: (§1)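 From the Consortium for Functional Glycomics database, 3228 arrays were curated, keeping only those whose protein sequence was available. Binding is given as a within-array Z-score averaged across arrays sharing a protein sequence and across linkers. Negative Z-scores can be read as non-binding.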

Fuc(a1-2)Gal(b1-3)GalNAc = molecular target: Fuc(a1-2)Gal(b1-3)GalNAc
Outline: as §1

[1] = molecular target: Fuc(a1-2)Gal(b1-3)GalNAc(a1-3)[Fuc(a1-2)]Gal(b1-4)Glc
Outline: as §1

[2] = molecular target: Fuc(a1-2)Gal(b1-3)GalNAc(a1-3)[Fuc(a1-2)]Gal(b1-4)GlcNAc
Outline: as §1

[3] = molecular target: Fuc(a1-2)Gal(b1-3)GalNAc(b1-3)Gal
Outline: as §1

[4] = molecular target: Fuc(a1-2)Gal(b1-3)GalNAc(b1-3)Gal(a1-4)Gal(b1-4)Glc
Outline: as §1

[5] = molecular target: Fuc(a1-2)Gal(b1-3)GalNAc(b1-4)[Neu5Ac(a2-3)]Gal(b1-4)Glc
Outline: as §1

Fuc(a1-2)Gal(b1-3)GlcNAc = molecular target: Fuc(a1-2)Gal(b1-3)GlcNAc
Outline: as §1

[6] = molecular target: Fuc(a1-2)Gal(b1-3)GlcNAc(b1-2)Man(a1-3)[Fuc(a1-2)Gal(b1-3)GlcNAc(b1-2)Man(a1-6)]Man(b1-4)GlcNAc(b1-4)GlcNAc
Outline: as §1

[7] = molecular target: Fuc(a1-2)Gal(b1-3)GlcNAc(b1-2)Man(a1-3)[Fuc(a1-2)Gal(b1-3)GlcNAc(b1-2)Man(a1-6)]Man(b1-4)GlcNAc(b1-4)[Fuc(a1-6)]GlcNAc
Outline: as §1

[8] = molecular target: Fuc(a1-2)Gal(b1-3)GlcNAc(b1-3)Gal(b1-4)Glc
Outline: as §1

[9] = molecular target: Fuc(a1-2)Gal(b1-3)GlcNAc(b1-3)GalNAc
Outline: as §1

[10] = molecular target: Fuc(a1-2)Gal(b1-3)GlcNAc(b1-3)[Fuc(a1-2)Gal(b1-3)GlcNAc(b1-6)]GalNAc
Outline: as §1

[11] = molecular target: Fuc(a1-2)Gal(b1-3)GlcNAc(b1-3)[Gal(b1-4)GlcNAc(b1-6)]Gal(b1-4)Glc
Outline: as §1

[12] = molecular target: Fuc(a1-2)Gal(b1-3)GlcNAc(b1-3)[Neu5Ac(a2-6)Gal(b1-4)GlcNAc(b1-6)]Gal(b1-4)Glc
Outline: as §1

[13] = molecular target: Fuc(a1-2)Gal(b1-3)GlcNAc6S
Outline: as §1

[14] = molecular target: Fuc(a1-2)Gal(b1-3)[Fuc(a1-4)]GlcNAc
Outline: as §1

[15] = molecular target: Fuc(a1-2)Gal(b1-3)[Fuc(a1-4)]GlcNAc(b1-2)Man(a1-3)[Fuc(a1-2)Gal(b1-3)[Fuc(a1-4)]GlcNAc(b1-2)Man(a1-3)]Man(b1-4)GlcNAc(b1-4)GlcNAc
Outline: as §1

[16] = molecular target: Fuc(a1-2)Gal(b1-3)[Fuc(a1-4)]GlcNAc(b1-2)Man(a1-3)[Fuc(a1-2)Gal(b1-3)[Fuc(a1-4)]GlcNAc(b1-2)Man(a1-6)]Man(b1-4)GlcNAc(b1-4)[Fuc(a1-6)]GlcNAc(b1-4)[Fuc(a1-6)]GlcNAc
Outline: as §1

[17] = molecular target: Fuc(a1-2)Gal(b1-3)[Fuc(a1-4)]GlcNAc(b1-3)[Fuc(a1-3)[Gal(b1-4)]GlcNAc(b1-6)]Gal(b1-4)Glc
Outline: as §1

[18] = molecular target: Fuc(a1-2)Gal(b1-3)[Fuc(a1-4)]GlcNAc(b1-3)[Gal(b1-4)GlcNAc(b1-6)]Gal(b1-4)Glc
Outline: as §1

[19] = molecular target: Fuc(a1-2)Gal(b1-4)Fuc(a1-3)]GlcNAc(b1-2)Man(a1-3)[Fuc(a1-2)Gal(b1-4)[Fuc(a1-3)]GlcNAc(b1-2)Man(a1-6)]Man(b1-4)GlcNAc(b1-4)GlcNAc
Outline: as §1

Fuc(a1-2)Gal(b1-4)Glc = molecular target: Fuc(a1-2)Gal(b1-4)Glc
Outline: as §1

Fuc(a1-2)Gal(b1-4)Glc6S = molecular target: Fuc(a1-2)Gal(b1-4)Glc6S
Outline: as §1

Fuc(a1-2)Gal(b1-4)GlcNAc = molecular target: Fuc(a1-2)Gal(b1-4)GlcNAc
Outline: as §1

[20] = molecular target: Fuc(a1-2)Gal(b1-4)GlcNAc(b1-2)Man
Outline: as §1

[21] = molecular target: Fuc(a1-2)Gal(b1-4)GlcNAc(b1-2)Man(a1-3)[Fuc(a1-2)Gal(b1-4)GlcNAc(b1-2)Man(a1-6)]Man(b1-4)GlcNAc(b1-4)GlcNAc
Outline: as §1

[22] = molecular target: Fuc(a1-2)Gal(b1-4)GlcNAc(b1-2)Man(a1-3)[Fuc(a1-2)Gal(b1-4)GlcNAc(b1-2)Man(a1-6)]Man(b1-4)GlcNAc(b1-4)[Fuc(a1-6)]GlcNAc
Outline: as §1

[23] = molecular target: Fuc(a1-2)Gal(b1-4)GlcNAc(b1-2)[Fuc(a1-2)Gal(b1-4)GlcNAc(b1-4)]Man(a1-3)[Fuc(a1-2)Gal(b1-4)GlcNAc(b1-2)Man(a1-6)]Man(b1-4)GlcNAc(b1-4)GlcNAc
Outline: as §1

[24] = molecular target: Fuc(a1-2)Gal(b1-4)GlcNAc(b1-3)Gal(b1-4)GlcNAc
Outline: as §1

[25] = molecular target: Fuc(a1-2)Gal(b1-4)GlcNAc(b1-3)Gal(b1-4)GlcNAc(b1-2)Man(a1-3)[Fuc(a1-2)Gal(b1-4)GlcNAc(b1-3)Gal(b1-4)GlcNAc(b1-2)Man(a1-6)]Man(b1-4)GlcNAc(b1-4)GlcNAc
Outline: as §1

[26] = molecular target: Fuc(a1-2)Gal(b1-4)GlcNAc(b1-3)Gal(b1-4)GlcNAc(b1-3)Gal(b1-4)GlcNAc
Outline: as §1

[27] = molecular target: Fuc(a1-2)Gal(b1-4)GlcNAc(b1-3)GalNAc
Outline: as §1

[28] = molecular target: Fuc(a1-2)Gal(b1-4)GlcNAc(b1-3)[Fuc(a1-2)Gal(b1-4)GlcNAc(b1-6)]GalNAc
Outline: as §1

[29] = molecular target: Fuc(a1-2)Gal(b1-4)GlcNAc(b1-3)[Fuc(a1-3)[Gal(b1-4)]GlcNAc(b1-6)]Gal(b1-4)Glc
Outline: as §1

[30] = molecular target: Fuc(a1-2)Gal(b1-4)GlcNAc(b1-6)GalNAc
Outline: as §1

[31] = molecular target: Fuc(a1-2)Gal(b1-4)GlcNAc6S
Outline: as §1

B1: Banana lectin (Musa acuminata) (protein)
chain: MNGAIKVGAWGGNGGSAFDMGPAYRIISVKIFSGDVVDGVDVTFTYYGKTETRHYGGSGGTPHEIVLQEGEYLVGMAGEVANYTGAVVLGKLGFSTNKKAYGPFGNTGGTPFSLPIAAGKISGFFGRGGKFLDAIGVYLEPLEHHHHHH
glycan array binding signal (z-score) (Fuc(a1-2)Gal): -0.159
glycan array binding signal (z-score) (Fuc(a1-2)Gal(b1-3)GalNAc): -0.177
glycan array binding signal (z-score) [1]: -0.171
glycan array binding signal (z-score) [2]: -0.196
glycan array binding signal (z-score) [3]: -0.187
glycan array binding signal (z-score) [4]: -0.169
glycan array binding signal (z-score) [5]: -0.166
glycan array binding signal (z-score) (Fuc(a1-2)Gal(b1-3)GlcNAc): -0.164
glycan array binding signal (z-score) [6]: 0.405
glycan array binding signal (z-score) [7]: -0.026
glycan array binding signal (z-score) [8]: -0.177
glycan array binding signal (z-score) [9]: -0.179
glycan array binding signal (z-score) [10]: -0.148
glycan array binding signal (z-score) [11]: -0.131
glycan array binding signal (z-score) [12]: -0.138
glycan array binding signal (z-score) [13]: -0.209
glycan array binding signal (z-score) [14]: -0.144
glycan array binding signal (z-score) [15]: -0.166
glycan array binding signal (z-score) [16]: -0.154
glycan array binding signal (z-score) [17]: -0.189
glycan array binding signal (z-score) [18]: -0.172
glycan array binding signal (z-score) [19]: -0.094
glycan array binding signal (z-score) (Fuc(a1-2)Gal(b1-4)Glc): -0.2
glycan array binding signal (z-score) (Fuc(a1-2)Gal(b1-4)Glc6S): -0.176
glycan array binding signal (z-score) (Fuc(a1-2)Gal(b1-4)GlcNAc): -0.139
glycan array binding signal (z-score) [20]: -0.166
glycan array binding signal (z-score) [21]: 0.195
glycan array binding signal (z-score) [22]: 0.094
glycan array binding signal (z-score) [23]: 0.043
glycan array binding signal (z-score) [24]: -0.178
glycan array binding signal (z-score) [25]: -0.09
glycan array binding signal (z-score) [26]: -0.192
glycan array binding signal (z-score) [27]: -0.198
glycan array binding signal (z-score) [28]: -0.169
glycan array binding signal (z-score) [29]: -0.142
glycan array binding signal (z-score) [30]: -0.166
glycan array binding signal (z-score) [31]: -0.171
